Measurements taken from the RNAGym collection of RNA variant scans (doi:10.1073/pnas.2313332121).
This sample is rich in variants without activity.

B1: TPR 5TU (parent)
chain: GGAUCUUCUCGAUCUAACAAAAAAGACAAAUCUGCCACAAAGCUUGAGAGCAUCUUCGGAUGCAGAGGCGGCAGCCUUCGGUGGCGCGAUAGCGCCAACGUUCUCAACUAUGACACGCAAAACGCGUGCUCCGUUGAAUGGAGUUUAUCAUG

Variants of: B1
Assay: polymerase ribozyme fitness, log enrichment relative to wild type (log ratio); higher = more active; in vitro selection for triplet polymerase activity
Method in brief: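 After PCR construction and transcription, each subunit's mutant library from a heterodimeric triplet polymerase ribozyme was annealed with a biotinylated primer, the partner subunit and triplets. Incubation was frozen, at −7 °C, and extended constructs were gel-excised, bound to streptavidin beads and amplified by RT-PCR, in one selection round done in triplicate. Fitness is the logarithm of a genotype's enrichment divided by that of the wild type, from inverse-variance-weighted replicate averages of Illumina-sequenced inputs and outputs. The base of the logarithm is 2, and genotypes needed ≥10 input reads and ≥1 read per output.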

With GGAUCUUCUCGAUCUAACAAAAAAGACAAAUCUGCCACAAAGCUUGAGAGCAUCUUCGGAUGCAGAGGCGGCAGCCUUCGGUGGGGCGAUAGCGCCAACGUUCUCAUCUAUGACACGCAAAACGCGUGCUCCGUUGAAUGGAGUUUAUCAUG [C85G A107U] as the variant, how does the “polymerase ribozyme fitness (log ratio)” value read?
The value was at most -4.2.

With GGAUCUUCUCGAUCUAACAAAAAAGACAAAUCUGCCACAAAGCUUGAGAGCAUCUUCGGAUGCAGAGGCGGCAGCCUUCGGUGGGGCGAUAGCGCCGACGUUCUCAACUAUGACACGCAAAACGCGUGCUCCGUUGAAUGGAGUUUAUCUUG [C85G A97G A150U] as the variant, how does the “polymerase ribozyme fitness (log ratio)” value read?
The value was -2.03.

For GGAUCUUCUCGAUCUAACAAAAAAGACAAAUCUGCCACAAAGCUUGAGAGCAUCUUCGGAUGCAGAGGCGGCAGCCUUCGGUGGGGCGAUAGCGCCAACGUUCUCAACUAUGACACGCAAAACGCGUGCUCCGUUGAUUGGAGUUUAUCAUG [C85G A138U], which “polymerase ribozyme fitness (log ratio)” value is on record?
The value was at most -4.2.

With GGAUCUUCUCGAUCUAACAAAAAAGACAAAUCUGCCACAAAGCUUGAGAGCAUCUUCGGAUGCAGAGGCGGCAGCCUUCGGUGGGGCGAUAGCGCCCACUUUCUCAACUAUGACACGCAAAACGCGUCCUCCAUUGAAUGUAGUUUACCAUG [C85G A97C G100U G128C G133A G141U U148C] as the variant, how does the “polymerase ribozyme fitness (log ratio)” value read?
The value was at most -4.2.

With GGAUCUUCUCGAUCUAACAAAAAAGACAAAUCUGCCACAAAGCUUGAGAGCAUCUUCGGAUGCAGAGGCGGCAGCCUUCGGUGGGGCGAUAGCGCCAACGUUCUCAACUAUGACCCGCUAAACGCGUGCUCCGUUGAAUGGACCUUAUCAUG [C85G A115C A119U G143C U144C] as the variant, how does the “polymerase ribozyme fitness (log ratio)” value read?
Its value is at most -4.2.

For GGAUCUUCUCGAUCUAACAAAAAAGACAAAUCUGCCACAAAGCUUGAGAGCAUCUUCGGAUGCAGAGGCGGCAGCCUUCGGUGGAGCGAUAGCGCCAACGUUCUCAACUAUGACACGCAAAACGCGUGCUCCGUUGAAUGGAGUUUAACAUG [C85A U148A], which “polymerase ribozyme fitness (log ratio)” value is on record?
Its value is -3.51.

Which “polymerase ribozyme fitness (log ratio)” value does the source give for GGAUCUUCUCGAUCUAACAAAAAAGACAAAUCUGCCACAAAGCUUGAGAGCAUCUUCGGAUGCAGAGGCGGCAGCCUUCGGUGGGGCGAUAGCGGCAACGUUCUCAACUUUGACACGCAAAAUGCGUGCUCCGUUGAAUGGAGUUUAUCAUG [C85G C95G A110U C123U] here?
Its value is at most -4.2.

With GGAUCUUCUCGAUCUAACAAAAAAGACAAAUCUGCCACAAAGCUUGAGAGCAUCUUCGGAUGCAGAGGCGGCAGCCUUCGGUGGGGCGAUAGAGCCAACGUUCUCAACUAUGACACGCAAAACGCGUGCUCCGUUGAAUGGAGUUUAUCAUG [C85G C93A] as the variant, how does the “polymerase ribozyme fitness (log ratio)” value read?
The value was at most -4.2.

For GGAUCUUCUCGAUCUAACAAAAAAGACAAAUCUGCCACAAAGCUUGAGAGCAUCUUCGGAUGCAGAGGCGGCAGCCUUCGGUGGGGCGAUAGAGCCAACGUUCUCAACUGUGACACGCAAAACGCGUGCUCUGUUGAAUGGAGUUUAUCAUG [C85G C93A A110G C132U], which “polymerase ribozyme fitness (log ratio)” value is on record?
The value was at most -4.2.

For GGAUCUUCUCGAUCUAACAAAAAAGACAAAUCUGCCACAAAGCUUGAGAGCAUCUUCGGAUGCAGAGGCGGCAGCCUUCGGUGGGGUGAUAGCGCCAACGUUCUCAACUAUGACCCGCAAAACGCGUGCUCCGUUGAAUGGAGUUUAACGUG [C85G C87U A115C U148A A150G], which “polymerase ribozyme fitness (log ratio)” value is on record?
Its value is at most -4.2.

Which “polymerase ribozyme fitness (log ratio)” value does the source give for GGAUCUUCUCGAUCUAACAAAAAAGACAAAUCUGCCACAAAGCUUGAGAGCAUCUUCGGAUGCAGAGGCGGCAGCCUUCGGUGGGGCGAUAGCGACAACGUUCUCAACUAUGACACGCAAAACGCGUGCUCCGUUGAAUGGAGUUUAUCAUG [C85G C95A] here?
The value was -1.68.

With GGAUCUUCUCGAUCUAACAAAAAAGACAAAUCUGCCACAAAGCUUGAGAGCAUCUUCGGAUGCAGAGGCGGCAGCCUUCGGUGGGGCGAUAGCGCCAACGUUCUCAACUAUGAGACGCAAAACGCGUGCUCCGUUGAAUGGAGUUUAUCAUG [C85G C114G] as the variant, how does the “polymerase ribozyme fitness (log ratio)” value read?
The value was -3.8.

Which “polymerase ribozyme fitness (log ratio)” value does the source give for GGAUCUUCUCGAUCUAACAAAAAAGACAAAUCUGCCACAAAGCUUGAGAGCAUCUUCGGAUGCAGAGGCGGCAGCCUUCGGUGGAGCGAUAGCGCCAACGUUCUCAACUAUGACACGCAAAACGCGUGCUCCGCUGAAUGGAGUUUAUCAUG [C85A U134C] here?
The value was -0.169.

Which “polymerase ribozyme fitness (log ratio)” value does the source give for GGAUCUUCUCGAUCUAACAAAAAAGACAAAUCUGCCACAAAGCUUGAGAGCAUCUUCGGAUGCAGAGGCGGCAGCCUUCGGUGGGGCGAUAGCGCCAACGUUCUCAUCUAUUACACGCAAAACGCGUGCUCCGUUGAAUGGACUUUAUCAUG [C85G A107U G112U G143C] here?
The value was at most -4.2.

For GGAUCUUCUCGAUCUAACAAAAAAGACAAAUCUGCCACAAAGCUUGAGAGCAUCUUCGGAUGCAGAGGCGGCAGCCUUCGGUGGAGCGAUAGCGCCAACGUUCUCAACUAUGACACGCAAAACGCGUGCUCCGUUGAAUGGAGCUUAUCAUG [C85A U144C], which “polymerase ribozyme fitness (log ratio)” value is on record?
Its value is -0.693.

For GGAUCUUCUCGAUCUAACAAAAAAGACAAAUCUGCCACAAAGCUUGAGAGCAUCUUCGGAUGCAGAGGCGGCAGCCUUCGGUGGGGCGAUAGCGCCAGCGUUCUCAACUAUGACACGCAAAACGCGUGCUCCGUUGAAUGGAGGUUAUCAUG [C85G A98G U144G], which “polymerase ribozyme fitness (log ratio)” value is on record?
The value was -0.337.

For GGAUCUUCUCGAUCUAACAAAAAAGACAAAUCUGCCACAAAGCUUGAGAGCAUCUUCGGAUGCAGAGGCGGCAGCCUUCGGUGGGGCGAUAGCGGCAACGUUCUCAACUAUGACACUCAAAACGCGUGCUCCGUUGAAUGGACUUUAUCAUG [C85G C95G G117U G143C], which “polymerase ribozyme fitness (log ratio)” value is on record?
Its value is at most -4.2.

With GGAUCUUCUCGAUCUAACAAAAAAGACAAAUCUGCCACAAAGCUUGAGAGCAUCUUCGGAUGCAGAGGCGGCAGCCUUCGGUGGAGCGAUAGCGCCAACGUUCUCAACUAUGACACGCAAAACGCGUGCUCCGUCGAAUGGAGUUUAUCAUG [C85A U135C] as the variant, how does the “polymerase ribozyme fitness (log ratio)” value read?
The value was -2.15.

Which “polymerase ribozyme fitness (log ratio)” value does the source give for GGAUCUUCUCGAUCUAACAAAAAAGACAAAUCUGCCACAAAGCUUGAGAGCAUCUUCGGAUGCAGAGGCGGCAGCCUUCGGUGGGGAGAUAGCGCCAACGUUCUCAACUAUGACACGCAAAACGCGUGCUCCGUUGAAUGGAGUUUAUCAUG [C85G C87A] here?
The value was at most -4.2.
